The campaign covered roughly 230,000 compounds. About 1,500 (0.65%) were called active. This list was built around the results that the source calls inconclusive (neither active nor inactive); the mix of calls is not that of the screen. Calls follow the shape of the dose curve; as a rule, active = well fitted inhibition curve with a large enough effect; inconclusive = small, poorly fitted or top-dose-only effect; inactive = no such curve, though single readings can be large or run the other way. A potency beside an inconclusive call is a rough fit, not a confirmed value.
Each compound was assayed against Lethal(3)malignant brain tumor-like protein 1 (Homo sapiens) (UniProt Q9Y468) (assay: qHTS Assay for the Inhibitors of L3MBTL1). Settings: AlphaScreen L3MBTL1–H3K9me1 peptide binding; series mostly up to 57.1 µM.
UniProt Q9Y468, sequence (Q9Y468 whole entry, looked up): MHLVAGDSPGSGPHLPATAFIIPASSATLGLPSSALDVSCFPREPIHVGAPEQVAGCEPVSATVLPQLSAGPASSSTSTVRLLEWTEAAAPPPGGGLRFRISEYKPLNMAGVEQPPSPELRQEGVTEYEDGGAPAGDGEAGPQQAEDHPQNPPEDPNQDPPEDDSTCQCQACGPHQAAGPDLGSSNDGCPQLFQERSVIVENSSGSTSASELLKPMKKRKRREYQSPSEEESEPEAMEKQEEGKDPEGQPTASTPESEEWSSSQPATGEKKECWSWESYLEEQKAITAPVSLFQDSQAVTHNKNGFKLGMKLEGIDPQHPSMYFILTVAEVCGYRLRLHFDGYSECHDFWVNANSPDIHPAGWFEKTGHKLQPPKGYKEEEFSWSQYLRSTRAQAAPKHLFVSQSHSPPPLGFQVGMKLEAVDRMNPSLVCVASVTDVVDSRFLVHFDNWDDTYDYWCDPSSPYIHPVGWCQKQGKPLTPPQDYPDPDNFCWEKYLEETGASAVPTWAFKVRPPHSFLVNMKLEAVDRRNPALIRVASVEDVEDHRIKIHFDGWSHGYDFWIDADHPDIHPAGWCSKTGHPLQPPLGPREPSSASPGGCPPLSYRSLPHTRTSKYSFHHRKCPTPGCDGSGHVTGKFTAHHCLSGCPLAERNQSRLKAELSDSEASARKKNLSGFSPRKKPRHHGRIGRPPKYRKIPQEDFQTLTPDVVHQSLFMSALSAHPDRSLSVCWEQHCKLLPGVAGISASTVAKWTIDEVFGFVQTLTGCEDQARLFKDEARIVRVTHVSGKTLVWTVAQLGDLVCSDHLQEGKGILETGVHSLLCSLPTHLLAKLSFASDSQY
How it was run: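 Displacement of a biotinylated histone H3(1-15) peptide monomethylated at Lys9 (75 nM) from L3MBTL1 (50 nM) was measured by AlphaScreen after a 30 min room-temperature compound incubation; cefsulodin titration served as intraplate control.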
For `C=CCn1c(O)c(N=NC(=S)Nc2ccc(OC)cc2)c2ccccc21`, the Potency was inconclusive: 25.1 µM [inhibitor, single point]. `CC(C)Cc1cc(C(C)(C)C)ccc1OC(=S)N(C)C` was tested, and the Potency was inconclusive: 6.31 µM [inhibitor, single point]. In the case of `O=C(NC(=S)Nc1ccc2ncccc2c1)c1ccccc1`, the Potency is reported as “inactive”. For `COc1ccc(OC)c(S(=O)(=O)Nc2ccc(CC(=O)O)cc2)c1`, the Potency was inconclusive: 39.8 µM [inhibitor, single point]. With `O=C1C(=O)N(Cc2ccco2)C(c2cccs2)/C1=C(\O)c1cccc([N+](=O)[O-])c1` (stereo not given) the Potency was inconclusive: 39.8 µM [inhibitor, partial curve]. `Cc1ccc(C2=NN(C(=O)CSc3nc4ncc(Cl)cc4[nH]3)C(c3ccco3)C2)cc1` (stereo not given) was tested, and the Potency was inconclusive: 28.2 µM [inhibitor, single point]. In the case of `C/C(=N\Nc1ccc([N+](=O)[O-])cc1)c1ccc(-n2nncc2C)cc1`, the Potency is reported as “inactive”. For `CS(=O)(=O)c1ccc2c(c1)sc1nc(=O)c(/C=C3/C=CC(=O)C(O)=C3)c(N)n12`, the Potency was inconclusive: 39.8 µM [inhibitor, single point]. For `O=C(NCc1ccccc1)C(c1ccccc1)N(Cc1cccs1)C(=O)c1cnccn1` (stereo not given), the Potency was “inactive”. For `O=C1c2ccccc2C(=O)C1(O)O`, the Potency was inconclusive: 15.8 µM [inhibitor, partial curve]. For `CCS(=O)(=O)n1nc(-c2ccc(Cl)cc2)nc1SCc1ccccc1`, the Potency was “inactive”. `Cc1ccccc1C(=O)NNC(=O)CSc1nc(-c2ccccc2)cc(=O)[nH]1` was tested, and the Potency was inconclusive: 39.8 µM [inhibitor, single point]. `CC(C)Nc1nnc(SCc2cc(=O)n3ccsc3n2)s1` was tested, and the Potency was inconclusive: 31.6 µM [inhibitor, single point]. In the case of `Cc1c(C(=O)c2ccc(Cl)cc2Cl)cnc2cc3c(cc12)OCO3`, the Potency is reported as “inactive”. `O=C(N/N=C/c1ccc2c(c1)OCO2)c1ccc2ccccc2n1` was tested, and the Potency was inconclusive: 31.6 µM [inhibitor, single point]. For `CC(CS(=O)(=O)c1cccc2cccnc12)N1CCCCC1` (stereo not given), the Potency was “inactive”. In the case of `Cc1nnc(NC(=O)Cc2cccs2)s1`, the Potency is reported as “inactive”. With `Cc1ccc(S(=O)(=O)ON2C(=O)c3ccccc3C2=O)c(C)c1` the Potency was “inactive”. For `COC(=O)[C@]1(CC(C)C)N[C@H](c2ccc(SC3CCCCC3)c(OC)c2)[C@@H]2C(=O)N(C)C(=O)[C@@H]21`, the Potency was inconclusive: 6.31 µM [inhibitor, single point]. In the case of `Cc1cc(C)n(-c2nnc(NCc3ccc(Cl)cc3)nn2)n1`, the Potency is reported as inconclusive: 17.8 µM [inhibitor, single point]. In the case of `CCN(CC)CCNCc1cc(Cl)c(OCC(=O)Nc2ccccc2)c(OC)c1`, the Potency is reported as “inactive”. With `O=C(Cn1cnc2sc(-c3ccccc3)cc2c1=O)NCc1ccco1` the Potency was inconclusive: 25.1 µM [inhibitor, single point]. With `Cc1ccc(CN2CCN(/N=C/c3cccn3C)CC2)c(C)c1` the Potency was “inactive”. With `CCOC(=O)c1cccc(NC(=O)CSc2nnc(CNc3ccc(C)cc3)n2CC)c1` the Potency was “inactive”. `CCCOc1ccc(C2=NNC(c3cccs3)=Nc3ccc(OC)cc32)cc1` was tested, and the Potency was inconclusive: 28.2 µM [inhibitor, single point]. For `CCOc1cccc2cc(C(=O)N3CCc4ccccc4C3)c(=O)oc12`, the Potency was inconclusive: 6.31 µM [inhibitor, single point]. In the case of `COC(=O)c1[nH]c2cc(OC)ccc2c1NC(=O)CN1CCOCC1`, the Potency is reported as inconclusive: 10 µM [inhibitor, partial curve]. `CN(C)c1ccc(N/C=C/C(=O)C(F)(F)F)cc1` was tested, and the Potency was inconclusive: 25.1 µM [inhibitor, single point]. For `Cc1cc(NC(=O)c2ccc(F)cc2F)n(-c2nc3ccccc3[nH]2)n1`, the Potency was inconclusive: 35.5 µM [inhibitor, single point]. In the case of `COc1cc(C)ccc1OCCOc1cc(C)ccc1Cl`, the Potency is reported as inconclusive: 39.8 µM [inhibitor, single point]. For `COc1cccc(NC(=S)N/N=C2\CC3CCC2(C)C3(C)C)c1` (stereo not given), the Potency was inconclusive: 8.91 µM [inhibitor, full curve, poor fit]. In the case of `CCc1sc(C(=O)Nc2nc(-c3ccccn3)cs2)cc1C`, the Potency is reported as inconclusive: 39.8 µM [inhibitor, single point]. For `CC(C(=O)N1CCc2ccccc21)N1CCN(S(=O)(=O)c2cccs2)CC1` (stereo not given), the Potency was inconclusive: 39.8 µM [inhibitor, single point]. `Cc1ccc(S(=O)(=O)N2CCN(C3CCC(c4ccccc4)CC3)CC2)cc1` (stereo not given) was tested, and the Potency was “inactive”. `O=C(N/N=C/c1ccncc1)c1cccc([N+](=O)[O-])c1` was tested, and the Potency was inconclusive: 39.8 µM [inhibitor, single point]. With `COC(=O)CC(NS(=O)(=O)c1cccs1)c1ccccc1Cl` (stereo not given) the Potency was inconclusive: 39.8 µM [inhibitor, single point]. For `Cn1c(Cn2c(=O)sc3ccccc32)nnc1SCC(=O)NCc1ccccc1Cl`, the Potency was inconclusive: 3.98 µM [inhibitor, full curve, poor fit]. For `Nc1nonc1OCCN1CCN(c2ccc([N+](=O)[O-])c3cccnc23)CC1`, the Potency was inconclusive: 0.708 µM [inhibitor, single point]. In the case of `COc1cc(OC)cc(C(=O)NC(=S)NNC(=O)c2cnccn2)c1`, the Potency is reported as inconclusive: 2.82 µM [inhibitor, full curve]. For `O=c1c2ccccc2c(C=Nc2ccc(S(=O)(=O)N3CCCCC3)cc2)c(O)n1-c1ccc(Cl)cn1`, the Potency was “inactive”. `Cc1cc(-c2n[nH]c(=S)n2/N=C/c2c[nH]c3ccccc23)n[nH]1` was tested, and the Potency was “inactive”. With `COc1cc(C(=O)NCc2nnc(SCC(=O)Nc3nccs3)o2)cc(OC)c1OC` the Potency was inconclusive: 15.8 µM [inhibitor, partial curve]. In the case of `O=C(c1cccnc1)N1CCN(S(=O)(=O)c2ccc(Cl)cc2)CC1`, the Potency is reported as inconclusive: 5.62 µM [inhibitor, single point]. With `Oc1ccc(O)c(Cc2nc3ccccc3[nH]2)c1` the Potency was “inactive”. For `CC1=C2C(CCS2(=O)=O)CC2(C1)C(=O)OC(C)(C)OC2=O` (stereo not given), the Potency was inconclusive: 31.6 µM [inhibitor, single point].

Reference: PubChem BioAssay AID485360 (National Center for Advancing Translational Sciences (NCATS), 2010)
Also: nearly all actives have a fitted effect of over 60% in size.
Potency is read from the fitted curve at half-maximal effect; tags tell the direction and shape of the fitted curve.
